According to PubChem BioAssay AID1645886 (National Center for Advancing Translational Sciences (NCATS), 2021):
Where “and” joins values, the source holds several entries; their conditions need not be identical. Equal values may be shown once. Hit rate of the full screen: of about 16,000 compounds, about 260 (1.6%) were called active. The inconclusive results got no clear call from the source; some entries with a clear call stand among them for comparison. Calls follow the shape of the dose curve; as a rule, active = well fitted inhibition curve with a large enough effect; inconclusive = small, poorly fitted or top-dose-only effect; inactive = no such curve, though single readings can be large or run the other way. Where the call is inconclusive, the potency comes from a doubtful curve fit. Where a SMILES comes first, the peptide text is derived from it. [ ]: non-standard residue; d: D form. Orn = NCCC[C@H](N)C(=O)O

target: Rap guanine nucleotide exchange factor 4 (Homo sapiens) (UniProt Q8WZA2); experiment: Validation qHTS for antagonist of cAMP-regulated guanine nucleotide exchange factor 4 (EPAC2); settings: EPAC2 Rap1B BODIPY-GDP exchange, fluorescence; activity, negative = inhibition: at 112 µM (top of the series); also: nearly all actives have a fitted effect of over 40% in size;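 as to activity, negative = inhibition: 100% = activation by cAMP agonist control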
Procedure, shortened: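 Fluorescent exchange read-out: 100 nM EPAC2 with 250 nM RAP1B–BODIPY-GDP and 50 uM GDP; BODIPY-GDP release lowers fluorescence. Read at 480/540 nm every 5 min for 30 min at room temperature; normalized to 6.5 mM cAMP.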
Potency is read from the fitted curve at half-maximal effect; tags tell the direction and shape of the fitted curve.

UniProt Q8WZA2, sequence (Q8WZA2 whole entry, looked up): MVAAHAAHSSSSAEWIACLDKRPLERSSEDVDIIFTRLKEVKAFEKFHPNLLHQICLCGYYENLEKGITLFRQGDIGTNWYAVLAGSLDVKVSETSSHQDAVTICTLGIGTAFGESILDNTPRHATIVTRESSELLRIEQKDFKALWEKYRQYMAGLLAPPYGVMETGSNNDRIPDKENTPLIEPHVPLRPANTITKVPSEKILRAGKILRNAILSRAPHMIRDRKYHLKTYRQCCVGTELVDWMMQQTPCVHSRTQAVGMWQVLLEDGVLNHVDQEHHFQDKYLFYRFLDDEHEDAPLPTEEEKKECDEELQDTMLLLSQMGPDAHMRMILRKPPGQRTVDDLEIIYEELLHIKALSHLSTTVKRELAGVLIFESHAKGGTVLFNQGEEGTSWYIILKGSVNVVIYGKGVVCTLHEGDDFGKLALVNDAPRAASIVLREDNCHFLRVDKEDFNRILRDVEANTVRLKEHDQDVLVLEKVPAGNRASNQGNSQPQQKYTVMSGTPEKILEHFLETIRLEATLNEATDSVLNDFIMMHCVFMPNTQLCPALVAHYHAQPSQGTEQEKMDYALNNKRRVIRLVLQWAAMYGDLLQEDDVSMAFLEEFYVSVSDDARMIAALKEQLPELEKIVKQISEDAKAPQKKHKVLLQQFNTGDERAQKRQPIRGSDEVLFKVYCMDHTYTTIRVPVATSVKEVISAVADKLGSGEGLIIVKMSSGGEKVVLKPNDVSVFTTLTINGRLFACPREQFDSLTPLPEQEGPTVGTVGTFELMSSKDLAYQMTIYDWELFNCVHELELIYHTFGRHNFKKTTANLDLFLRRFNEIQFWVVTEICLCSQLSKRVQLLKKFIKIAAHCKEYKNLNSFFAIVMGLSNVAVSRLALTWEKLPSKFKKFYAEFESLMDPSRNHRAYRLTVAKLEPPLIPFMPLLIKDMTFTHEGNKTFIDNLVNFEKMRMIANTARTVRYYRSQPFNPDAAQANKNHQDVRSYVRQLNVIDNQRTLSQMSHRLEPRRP

Row | Structure (SMILES) | Potency | activity, negative = inhibition
1 | CCN1\C(=C/C=C/C=C/c2sc3ccccc3[n+]2CC)Sc2ccccc21 | inconclusive: 7.08 µM [inhibitor, single point] | 
2 | [O]=[Bi][O][Bi]=[O] | inconclusive: 0.891 µM [inhibitor, full curve, poor fit] | 
3 | C=C1C(=O)O[C@H]2[C@H]1CC/C(C)=C\CC[C@@]1(C)O[C@@H]21 |  | inactive: 22.2%
4 | COCC1CCCN(Cc2ccc3c(c2)CN(C(=O)c2ccc(-n4cccn4)cc2)CCO3)C1 (stereo not given) |  | inactive: 8.61%
5 | O=C(NCC1CCC2(CCN(Cc3cc4ccccc4o3)CC2)O1)c1ccccc1 (stereo not given) | inconclusive: 39.8 µM [inhibitor, single point] | 
6 | O=C(c1cnccn1)N1CCC2(CCCN(c3ccccc3)C2)CC1 | inconclusive: 50.1 µM [inhibitor, partial curve, poor fit] | 
7 | COc1ccccc1CN1Cc2cccc3c2[C@@H](CC1=O)[C@H](O)[C@H](O)C3 | inconclusive: 89.1 µM [inhibitor, single point] | 
8 | O=c1c(-c2ccc(F)cc2)nc2cnc(N3CCNCC3)nc2n1Cc1cccs1 |  | inactive: -29.2%
9 | CCCS(=O)(=O)NCc1c(C)ncc2c1CCN(C(=O)c1cccc(Cl)c1F)C2 |  | inactive: -20.8%
10 | O=C(NC1CCCCC1)[C@@H]1CC=C[C@@H]2CCN(C3CCCCC3)C(=O)[C@@H]21 |  | inactive: -5.16%
11 | COc1ccc2[nH]cc(CCNc3cc(-c4ccccc4C(F)(F)F)ncn3)c2c1 | inconclusive: 100 µM [inhibitor, partial curve, poor fit] | 
12 | CC(=O)N[C@@H](CSC/C=C(\C)CCC=C(C)C)C(=O)O | inactive | 
13 | Cc1c(C(=O)NCC2Cc3cccc(-c4cncnc4)c3O2)c(-c2ccccc2)nn1-c1ccccc1 (stereo not given) | inconclusive: 100 µM [inhibitor, single point] | 
14 | COc1cccc(C(=O)NCc2nc(-c3cccc(NC(=O)c4ccoc4C)c3)oc2C)c1OC |  | inactive: -7.55%
15 | CCCCCCCCN1[C@@H](CC(=O)O)c2cc(F)ccc2S1(=O)=O | inconclusive: 79.4 µM [inhibitor, single point] | 
16 | CN1CCC(CN2c3ccccc3Sc3ccccc32)C1 (stereo not given) |  | inactive: 6.6%
17 | COc1ccc(SC[C@H](C)CN2CC[C@H](C)CCC2=O)cc1 | active: 50.1 µM | 
18 | Nc1cccc(/C=C/c2ccnc3ccccc23)c1 | inconclusive: 79.4 µM [inhibitor, partial curve, poor fit] | 
19 | COc1ccc2c(c1)OC[C@H]1c3cc4c(cc3O[C@@H]21)OCO4 | inconclusive: 39.8 µM [inhibitor, single point] | 
20 | Oc1ccccc1C=NCc1ccccc1 | inconclusive: 11.2 µM [inhibitor, partial curve, poor fit] | 
21 | Cc1ncc(-c2ccc(F)cc2)c(C2CCCN(Cc3cccc(O)c3)C2)n1 (stereo not given) | inconclusive: 7.94 µM [inhibitor, full curve, poor fit] | 
22 | COc1cc(CNC(=O)CCCC/C=C\C(C)C)ccc1O | inconclusive: 50.1 µM [inhibitor, partial curve] | 
23 | CCN1CCCC1CNC(=O)c1cnn(-c2nccc(-c3ccco3)n2)c1C1CC1 (stereo not given) |  | inactive: 12.3%
24 | CC(C)C[C@@H]1NC(=O)[C@H](CCCN)NC(=O)[C@H](C(C)C)NC(=O)[C@@H]2CCCN2C(=O)[C@@H](Cc2ccccc2)NC(=O)[C@H](CC(C)C)NC(=O)[C@H](CCCN)NC(=O)[C@H](C(C)C)NC(=O)[C@@H]2CCCN2C(=O)[C@@H](Cc2ccccc2)NC1=O (cyclo(V[Orn]L[dF]PV[Orn]L[dF]P)) | inconclusive: 89.1 µM [inhibitor, partial curve, poor fit] | 
25 | COc1ncc2nc(-c3ccc(F)cc3)c(=O)n(CCC#N)c2n1 | inconclusive: 28.2 µM [inhibitor, full curve] | 
26 | COC(=O)c1cc(Br)ccc1N(Cc1cc(OC)cc(OC)c1)S(C)(=O)=O | inconclusive: 56.2 µM [inhibitor, partial curve, poor fit] | 
27 | COc1ccccc1C(=O)O[C@H]1[C@H](Cc2ccccc2)NS(=O)(=O)[C@H]2C[C@@H]3C=C[C@]12O3 | inconclusive: 79.4 µM [inhibitor, single point] | 
28 | CC(C)CN1CCCC2(CCN(C(=O)c3cc(C(F)(F)F)cc(C(F)(F)F)c3)CC2)C1 | inconclusive: 100 µM [inhibitor, single point] | 

Row | Structure (SMILES) | Potency | activity, negative = inhibition
29 | O=C1[C@H](Cc2ccccc2)NC/C=C\C[C@@H](c2ccc(Cl)cc2)N1Cc1ccccc1 | inconclusive: 63.1 µM [inhibitor, partial curve, poor fit] | 
30 | CC(C)(C)NCC(O)CSc1nc(-c2ccc(C(N)=O)s2)cs1 (stereo not given) |  | inactive: 2.73%
31 | CC[C@H](C)C(=O)O[C@H]1CCC=C2C=C[C@H](C)[C@H](CC[C@@H]3C[C@H](O)CC(=O)O3)[C@H]21 | inconclusive: 56.2 µM [inhibitor, partial curve] | 
32 | COc1cc2nc(N3CCN(C(=O)OCc4ccccc4)C(C(=O)NC(C)(C)C)C3)nc(N)c2cc1OC (stereo not given) | inconclusive: 44.7 µM [inhibitor, partial curve, poor fit] | 
33 | O=C(c1ccncc1)N1CCC[C@@]2(CCN(Cc3cc(C(F)(F)F)cc(C(F)(F)F)c3)C2)C1 | inconclusive: 1.41 µM [inhibitor, full curve, poor fit] | 
34 | Cc1cc(=S)[nH]c2ccccc12 | inconclusive: 31.6 µM [inhibitor, single point] | 
35 | CN(C)C(=O)c1ccc(-c2cncnc2NC2CCNCC2)cc1 |  | inactive: -12.4%
36 | CCC[C@H]1COCCS(=O)(=O)N1Cc1cccc(F)c1 | inconclusive: 56.2 µM [inhibitor, single point] | 
37 | COc1ccc(-c2c(-c3cc(OC)c(OC)c(OC)c3)noc2C)cn1 | inconclusive: 50.1 µM [inhibitor, partial curve, poor fit] | 
38 | CC(=O)N1CCC2(CCN(Cc3cc(C(F)(F)F)cc(C(F)(F)F)c3)CC2)CC1 | inconclusive: 35.5 µM [inhibitor, partial curve, poor fit] | 
39 | CC1OC(OCC2OC(Oc3c(-c4ccc(O)c(O)c4)oc4cc(O)cc(O)c4c3=O)C(O)C(O)C2O)[C@@H](O)C(O)C1O (stereo not given in full) |  | inactive: -11.8%
40 | CCOc1ccccc1CN1CCCC(c2nc(C)ncc2-c2ccc(F)cc2)C1 (stereo not given) |  | inactive: -8.44%
41 | CCCCCCCC(=O)CC[C@@H]1[C@@H](C/C=C\CCCC(=O)OC(C)C)[C@@H](O)C[C@H]1O | inconclusive: 44.7 µM [inhibitor, partial curve] | 
42 | O=c1c(-c2ccc(F)c(F)c2)nc2cncnc2n1Cc1ccccc1Cl | inconclusive: 70.8 µM [inhibitor, single point] | 
43 | Cn1cccc1C(=O)N1CCC2(CCCN(c3ncccn3)C2)CC1 | inconclusive: 39.8 µM [inhibitor, single point] | 
44 | COc1cc(-c2c(-c3ccc4c(c3)OCO4)noc2C)ccc1F | inconclusive: 31.6 µM [inhibitor, full curve, poor fit] | 
45 | CN1CCN(C2=Nc3ccccc3Sc3ccc(Cl)cc32)CC1 | inconclusive: 44.7 µM [inhibitor, partial curve, poor fit] and inconclusive: 56.2 µM [inhibitor, partial curve, poor fit] | 
46 | CC1(C)[C@@H](O[C@H]2O[C@H](C(=O)O)[C@@H](O)[C@H](O)[C@H]2O[C@@H]2O[C@H](C(=O)O)[C@@H](O)[C@H](O)[C@H]2O)CC[C@]2(C)[C@H]3C(=O)C=C4[C@@H]5C[C@@](C)(C(=O)O)CC[C@]5(C)CC[C@@]4(C)[C@]3(C)CC[C@@H]12 | inconclusive: 56.2 µM [inhibitor, partial curve, poor fit] | 
47 | O=C1CCN(Cc2ccc(Br)cc2)CCN1[C@H](CO)c1ccccc1 | inconclusive: 79.4 µM [inhibitor, partial curve, poor fit] | 
48 | CN(Cc1ccco1)c1ncnc2ccc(-c3cccnc3)cc12 |  | inactive: -9.39%
49 | Cc1ccccc1-n1cc(CNC(=O)CN2Cc3ccccc3OC(C)C2)cn1 (stereo not given) | inconclusive: 5.62 µM [inhibitor, full curve, poor fit] | 
50 | CCOC(=O)CCC(=O)O[C@H]1[C@H](O[C@@H]2[C@@H](C)[C@H](O[C@H]3C[C@@](C)(OC)[C@@H](O)[C@H](C)O3)[C@@H](C)C(=O)O[C@H](CC)[C@@](C)(O)[C@H](O)[C@@H](C)C(=O)[C@H](C)C[C@@]2(C)O)O[C@H](C)C[C@@H]1N(C)C |  | inactive: -14.1%
51 | CCCCCCCCCCCCCCCCCCN(CCCCCCCCCCCCCCCCCC)c1ccc(/C=C/c2ccc(C=O)cc2)cc1 | inconclusive: 39.8 µM [inhibitor, single point] | 
52 | COc1ccc(CN2C[C@H](Cc3ccccc3)[C@@H](CC(=O)Nc3ccccc3)C2=O)cc1 | inconclusive: 79.4 µM [inhibitor, partial curve, poor fit] | 
53 | CS(=O)(=O)Nc1ccc([N+](=O)[O-])cc1Oc1ccccc1 | inconclusive: 50.1 µM [inhibitor, partial curve, poor fit] and inconclusive: 2.82 µM [inhibitor, full curve] | 
54 | O=C(NCCO)c1cn(C2CCCN(Cc3cccc(C(F)(F)F)c3)C2)nn1 (stereo not given) |  | inactive: 5.01%
55 | CC1(C)C2CC[C@]3(C)[C@H](C(=O)C=C4[C@@H]5C[C@@](C)(C(=O)O)CC[C@]5(C)CC[C@]43C)[C@@]2(C)CC[C@@H]1O[C@H]1O[C@H](C(=O)O)[C@@H](O)[C@H](O)[C@H]1O[C@@H]1O[C@H](C(=O)O)[C@@H](O)[C@H](O)[C@H]1O (stereo not given in full) | inconclusive: 70.8 µM [inhibitor, partial curve, poor fit] | 
